Source: PubChem BioAssay AID493208 (National Center for Advancing Translational Sciences (NCATS), 2011)
The campaign covered roughly 44,000 compounds. About 340 (0.77%) were called active. Another 5% or so got no clear call; they are omitted. Calls come from the whole dose curve; as a rule, active = well fitted inhibition curve with a large enough effect; inconclusive = small, poorly fitted or top-dose-only effect; inactive = flat fitted curve, though single readings scatter. This is one part of the list.

Assay: Acumen qHTS Assay for Inhibitors of the mTORC1 Signaling Pathway in MEF (Tsc2-/-, p53-/-) Cells: Sytravon;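 note: plate controls were DMSO for no effect and rapamycin for full effect; nearly all actives have a fitted effect of over 50% in size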
Conditions: phospho-rpS6 immunofluorescence/PI, 24 h; series mostly up to 38.3 µM; activity change, negative = inhibition: at the top concentration
In short: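 Cell-based qHTS: Tsc2-/- p53-/- MEF, 24 h cpd, 37 °C; fix/perm, anti-phospho-S6 Alexa-488 + PI; Acumen 488 nm scan; pS6/PI ratio, % positive cells; rapamycin 7.5 nM = inhibition ref; PI count = viability.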

Activity change, negative = inhibition, inactive:
COc1ccc(CNC(=O)C(=O)Nc2c3c(nn2-c2ccccc2)CSC3)cc1 -1.98%
COc1cc(OC)c(OC)cc1CN1CCc2nc(Nc3ccc4c(c3)OCCO4)ncc2C1 17.7%
CCCNC(=O)C1=CC(c2ccc3c(c2)OCO3)=NS(=O)(=O)N1C 1.6%
Cn1c(=O)c2c(nc(N3CCOCC3)n2Cc2cccc(Br)c2)n(C)c1=O -2.44%
Cc1ccccc1CNC(=O)Cc1ccc(NC(=O)N2CCCCc3ccccc32)cc1 -3.97%
COc1ccc(N2CCN(C(CNC(=O)C(=O)NCc3cccnc3)c3cccnc3)CC2)cc1 (stereo not drawn) -1.57%
CCOc1ccc(C(=O)c2cn(CC(=O)Nc3cccc(OC)c3)c3cc4c(cc3c2=O)OCCO4)cc1 -6.57%
Cc1nn2c(-c3ccco3)ccnc2c1-c1ccc(Br)cc1 2.16%
Cc1ccc(-c2cc(N)n(-c3ccc(C)cc3)n2)cc1 4.53%
Cc1c(C(=O)N2CCCCC2)c(S(=O)(=O)NCc2ccc(N(C)C)cc2)c(C)n1C -2.9%
COc1ccccc1CNC(=O)C(C)n1ccc2cc(S(=O)(=O)N3CCCC3)ccc21 (stereo not drawn) -12.8%
COc1ccc(CNC(=O)c2ccc3nc(CCc4ccccc4)oc3c2)cc1 -0.0022%
Cc1ccc(-c2[nH]c3c(c2-c2c(-n4cccc4)n(C)c(=O)[nH]c2=O)c(=O)[nH]c(=O)n3C)cc1 -10.5%
CCOC(=O)c1c(C)oc2nc(C)nc(N3CCN(c4ccccc4F)CC3)c12 -4.22%
CCOc1ccc(NC(=O)C2CCN(c3nnc(C)c4c(C)n(-c5ccccc5)nc34)CC2)cc1 -15.6%
Cc1ccc(NC(=O)CSc2nc3c([nH]c4ccccc43)c(=O)n2-c2ccccc2)cc1Cl -0.48%
Cc1cccc(N2CCN(C(=O)C3CCN(C(=O)c4cc5sccc5n4C)CC3)CC2)c1C -1.36%
Cc1ccc(C2Nc3cc(C)c(C)cc3-n3c(-c4ccccc4)c4c(=O)n(C)c(=O)n(C)c4c32)o1 (stereo not drawn) 0%
Cc1ccc2[nH]cc(S(=O)(=O)c3ccc(C)c(C)c3)c(=O)c2c1 1.25%
CC1Cn2c(C(=O)NCCc3ccc(Cl)cc3)cc3cccc(c32)S1 (stereo not drawn) -1.74%
Cc1ccc(F)cc1NC(=O)CCc1c(C)nn(-c2ccc(N3CCOCC3)nn2)c1C 2.1%
COc1ccc(NC(=O)CCS(=O)(=O)c2nc(-c3ccc4c(c3)OCO4)cc(C(F)(F)F)n2)cc1 -4.69%
COc1ccc(C)cc1NC(=O)CCc1c(C)nn(-c2ccc(N3CCCCC3)nn2)c1C -0.708%
Cc1ccc(/C=C/c2onc(C)c2S(=O)(=O)N2CCC(C(=O)N3CCOc4ccc(C)cc43)CC2)cc1 -8.81%
Cc1c(C(=O)N2CCCC2)oc2c1-c1nn(CC(=O)NCc3ccccc3Br)cc1CC2 -11.2%
CSc1ccc(C2CC(=O)Oc3c2c(=O)n(C)c2ccccc32)cc1 (stereo not drawn) 19.2%
COc1ccc(-c2cc(C(=O)Oc3ccc(C)cc3)c3cc(C)ccc3n2)cc1 -6.37%
Cc1cc(=O)n(C(C)C(=O)N2CCCc3ccccc32)c2c1c(C)nn2-c1ccccc1 (stereo not drawn) -18.4%
CC1CCN(c2nn3c(=O)c(C(=O)NCCc4ccccc4)cnc3s2)CC1 10.4%
Cc1ccc(-c2nnc(Nc3ccc(OC(F)(F)Cl)cc3)c3ccccc23)cc1S(=O)(=O)NC(C)(C)CO 4.21%
CC(=O)N1CCc2c(sc3nc(SCC(C)C)n(-c4ccc(C)c(Cl)c4)c(=O)c23)C1 -1.64%
CCCCn1c(=N)c(S(=O)(=O)c2ccc(C)cc2)cc2c(=O)n3cc(C)ccc3nc21 -24.2%
CCc1nn2c(=O)cc(COC(=O)c3ccc(NC(=O)CCc4ccccc4)cc3)nc2s1 0%
O=C(Nc1ccc(-c2nc3cc(NC(=O)c4ccc(F)cc4)ccc3o2)cc1)c1ccc(F)cc1 -9.64%
Nc1ccc(NC(=O)c2cccc(C(=O)Nc3ccc(N)cc3Cl)c2)c(Cl)c1 -15.1%
O=C(COc1ccccc1)N(Cc1cccnc1)c1nc2c(F)cccc2s1 0.0785%
Cc1nn(C(C)C(=O)Nc2ccc(C(C)C)cc2)c(=O)c2c1sc1ccccc12 (stereo not drawn) -1.32%
CC(NC(=O)C1CCN(S(=O)(=O)c2ccccc2)CC1)c1ccccc1 (stereo not drawn) -1.28%
CCc1nc(SC)ncc1C(=O)N1CCN(c2cc(Cl)ccc2C)CC1 0.0361%
COc1cc(-c2nc(SCC(=O)Nc3ccc(C)cc3)c(-c3ccc(F)cc3)[nH]2)cc(OC)c1OC -2.14%
COc1ccccc1N1CCN(C(=O)c2cnn(-c3cccc(Cl)c3)c2C2CCN(C(=O)OC(C)(C)C)CC2)CC1 0%
Cc1cccc(-c2nn3c(=O)cc(CN4CCN(C(=O)c5ccccc5Br)CC4)nc3s2)c1 -2.42%
C#CC(C)(CC)NC(=O)Cn1nnc(-c2ccc(OCc3ccccc3C)cc2)n1 (stereo not drawn) -28.6%
COc1ccccc1CNc1nc(-c2ccco2)nn1C(=O)c1cc(OC)c(OC)c(OC)c1 0.712%
CCCn1c2ccccc2c2cnn(CC(=O)NCC3CCN(Cc4ccc(F)cc4)CC3)c(=O)c21 -1.43%
Cc1ccccc1CNC(=O)C1=Cc2ccccc2OC1 0.225%
CCn1c2ccccc2c2nnc(N3CCN(c4cccc(Cl)c4)CC3)nc21 -2.73%
COc1ccc(S(=O)(=O)N2CCC(N3CCN(Cc4ccccc4)C(=O)C3=O)CC2)cc1 4.64%
CCOC(=O)c1c(C)[nH]c(CCC(=O)NCc2ccc(OC)c(OC)c2)c1C 8.25%
COc1ccc(CNC(=O)Cc2c(C)c3cc4c(C)coc4cc3oc2=O)cc1 0.679%
CSc1nn(CC(=O)Nc2ccccc2F)c(N)c1S(=O)(=O)c1ccccc1 5.35%
Cc1ccc(N2CCn3c2nc2c3c(=O)n(C/C=C/c3ccccc3)c(=O)n2C)cc1C 4.34%
COCCCNC(=O)Cn1c(=O)n(-c2cccc(C)c2)c(=O)c2c1c1cc(C)ccc1n2C 0.26%
Cc1ccc(CN2CCSc3ccc(C(=O)NCc4ccc(OC(C)C)cc4)cc32)cc1 -5.7%
COc1ccc(-c2noc(CCCC(=O)Nc3cccc(Cl)c3C)n2)cc1 1.33%
COc1ccccc1-c1c(C)nn2c(-c3ccccc3)cc(-c3ccccc3)nc12 0.453%
CCOc1ccc(C2=NC(c3ccncc3)=Nc3ccc(C)cc3N2)cc1OCC 2.69%
Cc1ccc(OCCn2cc(C(=O)c3cccs3)c3ccccc32)cc1 -2.8%
COc1cccc(/C=C/c2onc(C)c2S(=O)(=O)N2CCC(C(=O)N3CCCCC3)CC2)c1 -3.03%
COc1ccc(C2CC(=O)c3c([nH]c(C(=O)OCc4ccccc4)c3C)C2)cc1 (stereo not drawn) -27.2%
COCc1cc(C)nc2sc(C(=O)Nc3ccccc3O)c(N)c12 -8.83%
COc1ccccc1NC(=O)C1=C(C)Nc2c(C(=O)Nc3ccc(C)cc3)cnn2C1c1cccc(OC)c1OC (stereo not drawn) -6.78%
Cc1ccccc1NC(=O)c1cc2c(-c3ccccc3)nn(-c3ccccc3)c2s1 -21.2%
Cc1cccc(N2CCN(C(=O)Cn3nc(C)c4sc5ccccc5c4c3=O)CC2)c1C -1.5%
COc1ccc(CNC(=O)Cn2c(=O)nc(-c3ccccc3)c3cc(Cl)ccc32)cc1OC 5.71%
CCCSCCCNC(=O)C1CCN(C(=O)c2cnn(-c3ccccc3)c2-n2cccc2)CC1 -0.885%
COc1cccc(C(=O)Nc2ccc(-n3nncc3-c3ccccc3)cc2)c1OC 10.3%
CCc1ccc(NCc2cc3ccc(OC)cc3n(CC(=O)Nc3ccccc3C)c2=O)cc1 -9.8%
COc1ccc(NC(=O)CSc2nc(-c3cccs3)cc(C(F)(F)F)n2)cc1Cl -27.4%
CCCCN(CCCC)CCNC(=O)Cn1nc(CC)n2c(cc3sccc32)c1=O -10%
CCC1=Nc2cc(C(=O)NCCc3ccc(OC)c(OC)c3)ccc2Sc2ccccc21 0.623%
CCc1ccc(C(=O)CC2(O)C(=O)N(CCc3ccccc3)c3ccc(Br)cc32)cc1 (stereo not drawn) -7.15%
CCc1c(C)sc2c1CCN(Cc1cccc(OC)c1)C2c1ccccc1 (stereo not drawn) 0.686%
Cc1ccc(CSC2=Nc3ccccc3C3=NC(CCC(=O)NC4CCCCC4)C(=O)N23)cc1 (stereo not drawn) 0.0432%
CCc1ccccc1S(=O)(=O)Cc1ccc(C(=O)NCc2ccc(Cl)cc2)o1 -0.415%
COC(=O)c1ccc(Cl)cc1NC(=O)Nc1nnc(N(C)C2CCCCC2)s1 2.06%
COc1ccc(CCC(=O)NCc2ccc3c(c2)CCN3C(=O)c2ccc(Cl)cc2)cc1 0.0584%
Cc1ccc(CNC(=O)C(NS(=O)(=O)c2cccs2)C(C)C)cc1 (stereo not drawn) -4.28%
CC(=O)c1cccc(NC(=O)CSc2nc3c(c(=O)[nH]2)CCC3)c1 2.41%
CCc1ccc2oc(C(=O)Nc3ccccc3OC)cc(=O)c2c1 -3.71%
COc1ccc(-n2nc3ccc(NC(=O)c4c(OC)cccc4OC)cc3n2)cc1 0.925%
O=C(Cn1c(=O)n(-c2ccc(F)cc2)c(=O)c2sc3ccccc3c21)NC1CCCC1 6.67%
CCc1nc2ccccc2n2c(-c3ccc(C)cc3)c3c(=O)n(C)c(=O)n(C)c3c12 8.72%
Cc1cccc(N2CCN(C(c3ccccc3)c3nnc(-c4ccccc4F)o3)CC2)c1C (stereo not drawn) 4.43%
Cc1cc(C)cc(NC(=O)C2CCCN(S(=O)(=O)c3cccc4nsnc34)C2)c1 (stereo not drawn) 2.43%
Fc1ccc(Nc2nc(SCc3ccccc3Cl)nc3ccccc23)cc1 3.14%
NC(=O)C1CCN(C(=O)c2ccc3c(c2)N(Cc2cccc(Cl)c2)C(=O)c2ccccc2S3=O)CC1 (stereo not drawn) 0.919%
CCOC(=O)c1c(C)[nH]c(C)c1S(=O)(=O)NCC(=O)Nc1ccc(C)cc1C 5.2%
COc1ccc(CSc2nc3ccncc3n2CC(=O)Nc2cc(C)cc(C)c2)cc1 -3.81%
Cc1csc2nc(COC(=O)CNC(=O)c3ccc(F)cc3)cc(=O)n12 0.39%
Cc1ccc(Cl)cc1N1CCN(CCCNC(=O)Cn2ncc3c([nH]c4ccccc43)c2=O)CC1 -3.84%
Cc1ccc(C)c(NC(=O)CN(C)S(=O)(=O)c2cccc3cccnc23)c1 0.233%
Cc1ccc(C(=O)Nc2ccccc2C(=O)OCc2cc(=O)n3nc(C(C)C)sc3n2)cc1 0%
